This is one part of the list.

For the assay, the target named is T1, OsWOX13 (Oryza sativa, UniProt Q5QMM3 1-267).
T1 sequence: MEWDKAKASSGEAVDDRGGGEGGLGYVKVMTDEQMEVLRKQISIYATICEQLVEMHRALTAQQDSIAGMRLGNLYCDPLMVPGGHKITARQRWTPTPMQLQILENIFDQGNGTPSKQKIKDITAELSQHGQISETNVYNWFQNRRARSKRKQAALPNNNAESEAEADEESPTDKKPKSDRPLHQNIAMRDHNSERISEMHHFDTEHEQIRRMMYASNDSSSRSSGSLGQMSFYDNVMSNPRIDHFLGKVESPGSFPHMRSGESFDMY
Description: protein-binding microarray (RPBM); PBS, 2% BSA, 51.3 ng/ul salmon testes DNA, 50 uM zinc acetate, 200 nM TF, 25 C, 1 h; high values mean tight binding. The conditions noted are these: protein: recombinant; tags: N-terminal polyhistidine and DsRed monomer fusion (pET32a); label: CyDye5-dUTP incorporated in the synthesized complementary strand; 3' TTTTT single-stranded linker to array surface; dsDNA, one strand shown. In short, it runs like this:
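Binding signal is reported as fluorescence intensity per feature (arbitrary units) from an Axon 4000B scanner. Incubation used 200 nM of each Ni–NTA-purified, N-terminally polyhistidine- and DsRed-fused transcription factor from E. coli BL21-CodonPlus on a double-stranded custom Agilent array for 1 h at 25 °C, with 50 µM zinc acetate in the buffer, followed by washing.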
Turning to “AAAATTTAATTGATTATATGCTAATAACTTTCTTGTTTTGCGGAGTCACCTAGTGCAG”, the binding signal was 51600 fluorescence intensity (a.u.). Consider “GCCGTTAGTTAATTATTATCCGGTAAAGAAGATTAGTAGTCGGAGTCACCTAGTGCAG”, for which the binding signal is 12200 fluorescence intensity (a.u.). Take “AATATATTGATTTTAGTTTGAAGCCAAATTATTGACATTGCGGAGTCACCTAGTGCAG”: the binding signal is 17800 fluorescence intensity (a.u.). Take “GTTGATGTTTCAGTAATTGAAGCTTTGATGTTTTGTGTATCGGAGTCACCTAGTGCAG”: the binding signal was 36600 fluorescence intensity (a.u.).

For “CCAGCCACTCATCAATCACTCAAGGCCCCTCCTCCTCTCTCGGAGTCACCTAGTGCAG”, the binding signal is 10800 fluorescence intensity (a.u.). Regarding “AATATCTTGATTTGCTATTGGCTAGAAAATAGTGGGGATGCGGAGTCACCTAGTGCAG”, the binding signal is 12700 fluorescence intensity (a.u.).

In the case of “AGATGACTGGCTATGATATCCAATCCTCAGTTGATCTCTTCGGAGTCACCTAGTGCAG”, the binding signal was 16100 fluorescence intensity (a.u.). In the case of “GTTTAATTTGACATCACGGCTGCATGGATCCATTTCCTCCCGGAGTCACCTAGTGCAG” it was 33000 fluorescence intensity (a.u.); in that of “CCCCTTGCTGTAATTACACAACACTCAGTTCATTTGCAATCGGAGTCACCTAGTGCAG”, 8620 fluorescence intensity (a.u.); in that of “TTGTAATTGCAAAGGTAAAGGAGAGATGTACTTGATAATGCGGAGTCACCTAGTGCAG”, 8230 fluorescence intensity (a.u.). As to “CTTAAATTACTTCGTATTAACAAAGTGTGTTGCATCATAACGGAGTCACCTAGTGCAG”, the binding signal was 13400 fluorescence intensity (a.u.). Regarding “GTTCACGATTTTGATAGACGCACATTGCAAGAAGGGTGATCGGAGTCACCTAGTGCAG”, the binding signal was 3680 fluorescence intensity (a.u.).

As for “ACAAATTATGATGTTTTCTAATGAACATCATCGCCTGGTTCGGAGTCACCTAGTGCAG”, the binding signal is 12900 fluorescence intensity (a.u.). For “CGTACTCTTAGCAGATGATTGATTGCTTACTACCTTTTCCCGGAGTCACCTAGTGCAG”, the binding signal was 30600 fluorescence intensity (a.u.).

As to “ATAAGATGATTTGCACTGGCGTAATGCATGTGAAATGCTACGGAGTCACCTAGTGCAG”, the binding signal was 12300 fluorescence intensity (a.u.). As for “AAGCAATCAGCAGCACTCCATTCATCAGGAGGCACGCAACCGGAGTCACCTAGTGCAG”, the binding signal is 3940 fluorescence intensity (a.u.).

As to “CAATAAATTAGGCTCAAACGGGTAACAGATTCGCTACTACCGGAGTCACCTAGTGCAG”, the binding signal is 16000 fluorescence intensity (a.u.). For “AATTCAATCTTGTGGTTACCACAATATAGAGCACAATGGCCGGAGTCACCTAGTGCAG”, the binding signal is 3550 fluorescence intensity (a.u.). For “TCGTAAATTTAAATCCATAGATTTAAGGAATACTTAGGCTCGGAGTCACCTAGTGCAG”, the binding signal was 25900 fluorescence intensity (a.u.).

For the sequence “TATAAATTTTAGGTGTATAAATTTACTAAAATAGAAAAGTCGGAGTCACCTAGTGCAG”, the binding signal is 4120 fluorescence intensity (a.u.). “TTAAAATTTATATGTTAAATTATAGTGGTTTAAAATTTCACGGAGTCACCTAGTGCAG”: the binding signal is 8530 fluorescence intensity (a.u.). For “AGAAATTGATTCGTCGAGGATATTGATCTATTAGTAAATGCGGAGTCACCTAGTGCAG”, the binding signal was 36700 fluorescence intensity (a.u.). In the case of “GTGGTGGGATTTGGAACTGGAACCATGTGGTAGCATCTAGCGGAGTCACCTAGTGCAG”, the binding signal is 4980 fluorescence intensity (a.u.). Take “TTGTGATTTCTCGCGACCAAGCCAAACCTGTTAACTGGAACGGAGTCACCTAGTGCAG”: the binding signal was 6160 fluorescence intensity (a.u.). As to “CATAATTTTACCGGAGTTTCTGCTACTAGCAGTGATGGGCCGGAGTCACCTAGTGCAG”, the binding signal is 10900 fluorescence intensity (a.u.).

On to “GTTCGGTTCCATCAATCAAATCTAGCTAACCATGCCGGCACGGAGTCACCTAGTGCAG”, for which the binding signal is 18600 fluorescence intensity (a.u.). For the sequence “CTAAATCACCTTACATCATTAGAATAACTTAAATCTGATTCGGAGTCACCTAGTGCAG”, the binding signal is 4350 fluorescence intensity (a.u.).

With “TACGTGTGTTGATTTCCGTGACATATGCATAAATTTCTTTCGGAGTCACCTAGTGCAG”, the binding signal was 3870 fluorescence intensity (a.u.). Consider “CTATAATTTAAAGGACTTAGTTTATGATAGTGATGGGTGTCGGAGTCACCTAGTGCAG”, for which the binding signal is 26600 fluorescence intensity (a.u.). As for “ATGCTAAAATGATTTATATTATATTTACGATCGAAGGAAGCGGAGTCACCTAGTGCAG”, the binding signal is 16800 fluorescence intensity (a.u.). As for “TAATCACGTTAATTGCATGGCTTAATGCCCTTGATAAATTCGGAGTCACCTAGTGCAG”, the binding signal is 11200 fluorescence intensity (a.u.).

For “AACTGAATTTGCCTGATGACAGCCGTATCCACCCAGTTGTCGGAGTCACCTAGTGCAG”, the binding signal is 6210 fluorescence intensity (a.u.).

As to “AATAATTAATTTCTGAGAAAACGACAGGTCATTTTACTTACGGAGTCACCTAGTGCAG”, the binding signal was 29700 fluorescence intensity (a.u.). For the sequence “AAGTTGATGTGATGGAAAAGGACTGAAGTTTGGATTCAAACGGAGTCACCTAGTGCAG”, the binding signal is 7380 fluorescence intensity (a.u.). For the sequence “ACGTGATGATCATTAACGCAGGAAGGGGCTACTATAATCACGGAGTCACCTAGTGCAG”, the binding signal was 6920 fluorescence intensity (a.u.). Consider “TGGAAGAAATTGATGTAATGCTCTGGCCTTTTCATGGATACGGAGTCACCTAGTGCAG”, for which the binding signal was 8100 fluorescence intensity (a.u.). Take “CTTGATTGACCTTCACCGGCGCCGGCGCCGGCGCCGCCGTCGGAGTCACCTAGTGCAG”: the binding signal is 11900 fluorescence intensity (a.u.).

In the case of “AGCTATTAGTGTATGATTAATTAAGTTTTAATTATTTCAACGGAGTCACCTAGTGCAG”, the binding signal is 19000 fluorescence intensity (a.u.). In the case of “TTAATTAGAATTAAACCTCGGTACATACAATATGTACTTACGGAGTCACCTAGTGCAG”, the binding signal is 6350 fluorescence intensity (a.u.). For the sequence “GTTGACAATATTTGATAGGTTGTCCAATGGTATCGATTATCGGAGTCACCTAGTGCAG”, the binding signal is 10200 fluorescence intensity (a.u.). With “ACTTCTCCCAATCAAACCCGCCGCCGCCGCCGCCACTCCTCGGAGTCACCTAGTGCAG”, the binding signal was 4260 fluorescence intensity (a.u.). In the case of “TAACAATCACAACTTCTTTCATAATCTTCAGCTTTCCAAACGGAGTCACCTAGTGCAG” it was 4260 fluorescence intensity (a.u.).
